Source: US20110319597A1 (CAPHALON AUSTRALIA, published 2011)
One block for each binder: values may come before it.

Target: T1, recombinant human TNFα (CytoLab) (human, UniProt P01375 in part)
T1 construct: coated on the ELISA plate at 1 µg/ml; also called Tumour necrosis factor alpha
Assay: ELISA on coated human TNFα

T1 sequence (P01375 77-233 limits assumed): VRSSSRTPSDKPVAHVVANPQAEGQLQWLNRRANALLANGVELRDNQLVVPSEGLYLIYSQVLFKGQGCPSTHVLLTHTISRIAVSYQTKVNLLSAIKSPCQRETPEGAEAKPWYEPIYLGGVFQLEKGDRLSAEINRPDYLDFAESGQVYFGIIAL

A450 (AU): 0.309 AU
B1: TNFα dAb Fc variant P44H (Fc fusion, name in Kabat numbering)
chain: DIQMTQSPSSLSASVGDRVTITCRASQAIDSYLHWYQQKPGKAHKLLIYSASNLETGVPSRFSGSGSGTDFTLTISSLLPEDFATYYCQQVVWRPFTFGQGTKVEIKRV[human IgG1 Fc with changes left out]

A450 (AU): 0.761 AU
B2: TNFα dAb Fc variant S77L (Fc fusion, name in Kabat numbering)
chain: DIQMTQSPSSLSASVGDRVTITCRASQAIDSYLHWYQQKPGKAPKLLIYSASNLETGVPSRFSGSGSGTDFTLTISLLLPEDFATYYCQQVVWRPFTFGQGTKVEIKRV[human IgG1 Fc with changes left out]

A450 (AU): 0.21 AU
B3: TNFα dAb Fc variant R61A (Fc fusion, name in Kabat numbering)
chain: DIQMTQSPSSLSASVGDRVTITCRASQAIDSYLHWYQQKPGKAPKLLIYSASNLETGVPSAFSGSGSGTDFTLTISSLLPEDFATYYCQQVVWRPFTFGQGTKVEIKRV[human IgG1 Fc with changes left out]

A450 (AU): 0.832 AU
B4: TNFα dAb Fc variant S76L (Fc fusion, name in Kabat numbering)
chain: DIQMTQSPSSLSASVGDRVTITCRASQAIDSYLHWYQQKPGKAPKLLIYSASNLETGVPSRFSGSGSGTDFTLTILSLLPEDFATYYCQQVVWRPFTFGQGTKVEIKRV[human IgG1 Fc with changes left out]

A450 (AU): 0.205 AU
B5: TNFα dAb Fc variant S63P (Fc fusion, name in Kabat numbering)
chain: DIQMTQSPSSLSASVGDRVTITCRASQAIDSYLHWYQQKPGKAPKLLIYSASNLETGVPSRFPGSGSGTDFTLTISSLLPEDFATYYCQQVVWRPFTFGQGTKVEIKRV[human IgG1 Fc with changes left out]

A450 (AU): 0.19 AU
B6: TNFα dAb Fc variant S65P (Fc fusion, name in Kabat numbering)
chain: DIQMTQSPSSLSASVGDRVTITCRASQAIDSYLHWYQQKPGKAPKLLIYSASNLETGVPSRFSGPGSGTDFTLTISSLLPEDFATYYCQQVVWRPFTFGQGTKVEIKRV[human IgG1 Fc with changes left out]

A450 (AU): 0.225 AU
B7: TNFα dAb Fc variant R61P (Fc fusion, name in Kabat numbering)
chain: DIQMTQSPSSLSASVGDRVTITCRASQAIDSYLHWYQQKPGKAPKLLIYSASNLETGVPSPFSGSGSGTDFTLTISSLLPEDFATYYCQQVVWRPFTFGQGTKVEIKRV[human IgG1 Fc with changes left out]

A450 (AU): 0.962 AU
B8: TNFα dAb Fc variant Q37S (Fc fusion, name in Kabat numbering)
chain: DIQMTQSPSSLSASVGDRVTITCRASQAIDSYLHWYSQKPGKAPKLLIYSASNLETGVPSRFSGSGSGTDFTLTISSLLPEDFATYYCQQVVWRPFTFGQGTKVEIKRV[human IgG1 Fc with changes left out]

A450 (AU): 0.751 AU
B9: TNFα dAb Fc variant S63L (Fc fusion, name in Kabat numbering)
chain: DIQMTQSPSSLSASVGDRVTITCRASQAIDSYLHWYQQKPGKAPKLLIYSASNLETGVPSRFLGSGSGTDFTLTISSLLPEDFATYYCQQVVWRPFTFGQGTKVEIKRV[human IgG1 Fc with changes left out]

A450 (AU): 0.827 AU
B10: TNFα dAb Fc variant S77H (Fc fusion, name in Kabat numbering)
chain: DIQMTQSPSSLSASVGDRVTITCRASQAIDSYLHWYQQKPGKAPKLLIYSASNLETGVPSRFSGSGSGTDFTLTISHLLPEDFATYYCQQVVWRPFTFGQGTKVEIKRV[human IgG1 Fc with changes left out]

A450 (AU): 0.766 AU
B11: TNFα dAb Fc variant P80Y (Fc fusion, name in Kabat numbering)
chain: DIQMTQSPSSLSASVGDRVTITCRASQAIDSYLHWYQQKPGKAPKLLIYSASNLETGVPSRFSGSGSGTDFTLTISSLLYEDFATYYCQQVVWRPFTFGQGTKVEIKRV[human IgG1 Fc with changes left out]

A450 (AU): 0.485 AU
B12: TNFα dAb Fc variant S77D (Fc fusion, name in Kabat numbering)
chain: DIQMTQSPSSLSASVGDRVTITCRASQAIDSYLHWYQQKPGKAPKLLIYSASNLETGVPSRFSGSGSGTDFTLTISDLLPEDFATYYCQQVVWRPFTFGQGTKVEIKRV[human IgG1 Fc with changes left out]

A450 (AU): 0.952 AU
B13: TNFα dAb Fc variant S77P (Fc fusion, name in Kabat numbering)
chain: DIQMTQSPSSLSASVGDRVTITCRASQAIDSYLHWYQQKPGKAPKLLIYSASNLETGVPSRFSGSGSGTDFTLTISPLLPEDFATYYCQQVVWRPFTFGQGTKVEIKRV[human IgG1 Fc with changes left out]

A450 (AU): 0.188 AU
B14: TNFα dAb Fc variant S67P (Fc fusion, name in Kabat numbering)
chain: DIQMTQSPSSLSASVGDRVTITCRASQAIDSYLHWYQQKPGKAPKLLIYSASNLETGVPSRFSGSGPGTDFTLTISSLLPEDFATYYCQQVVWRPFTFGQGTKVEIKRV[human IgG1 Fc with changes left out]

A450 (AU): 0.863 AU
B15: TNFα dAb Fc variant S67L (Fc fusion, name in Kabat numbering)
chain: DIQMTQSPSSLSASVGDRVTITCRASQAIDSYLHWYQQKPGKAPKLLIYSASNLETGVPSRFSGSGLGTDFTLTISSLLPEDFATYYCQQVVWRPFTFGQGTKVEIKRV[human IgG1 Fc with changes left out]

A450 (AU): 0.251 AU
B16: TNFα dAb Fc variant Q37D (Fc fusion, name in Kabat numbering)
chain: DIQMTQSPSSLSASVGDRVTITCRASQAIDSYLHWYDQKPGKAPKLLIYSASNLETGVPSRFSGSGSGTDFTLTISSLLPEDFATYYCQQVVWRPFTFGQGTKVEIKRV[human IgG1 Fc with changes left out]

A450 (AU): 1.01 AU
B17: TNFα dAb Fc variant S65Y (Fc fusion, name in Kabat numbering)
chain: DIQMTQSPSSLSASVGDRVTITCRASQAIDSYLHWYQQKPGKAPKLLIYSASNLETGVPSRFSGYGSGTDFTLTISSLLPEDFATYYCQQVVWRPFTFGQGTKVEIKRV[human IgG1 Fc with changes left out]

A450 (AU): 0.944 AU
B18: TNFα dAb Fc variant S67A (Fc fusion, name in Kabat numbering)
chain: DIQMTQSPSSLSASVGDRVTITCRASQAIDSYLHWYQQKPGKAPKLLIYSASNLETGVPSRFSGSGAGTDFTLTISSLLPEDFATYYCQQVVWRPFTFGQGTKVEIKRV[human IgG1 Fc with changes left out]

A450 (AU): 0.944 AU
B19: TNFα dAb Fc variant S67Y (Fc fusion, name in Kabat numbering)
chain: DIQMTQSPSSLSASVGDRVTITCRASQAIDSYLHWYQQKPGKAPKLLIYSASNLETGVPSRFSGSGYGTDFTLTISSLLPEDFATYYCQQVVWRPFTFGQGTKVEIKRV[human IgG1 Fc with changes left out]

A450 (AU): 0.215 AU
B20: TNFα dAb Fc variant R61D (Fc fusion, name in Kabat numbering)
chain: DIQMTQSPSSLSASVGDRVTITCRASQAIDSYLHWYQQKPGKAPKLLIYSASNLETGVPSDFSGSGSGTDFTLTISSLLPEDFATYYCQQVVWRPFTFGQGTKVEIKRV[human IgG1 Fc with changes left out]

A450 (AU): 0.902 AU
B21: TNFα dAb Fc variant S76H (Fc fusion, name in Kabat numbering)
chain: DIQMTQSPSSLSASVGDRVTITCRASQAIDSYLHWYQQKPGKAPKLLIYSASNLETGVPSRFSGSGSGTDFTLTIHSLLPEDFATYYCQQVVWRPFTFGQGTKVEIKRV[human IgG1 Fc with changes left out]

A450 (AU): 0.764 AU
B22: TNFα dAb Fc variant P80Q (Fc fusion, name in Kabat numbering)
chain: DIQMTQSPSSLSASVGDRVTITCRASQAIDSYLHWYQQKPGKAPKLLIYSASNLETGVPSRFSGSGSGTDFTLTISSLLQEDFATYYCQQVVWRPFTFGQGTKVEIKRV[human IgG1 Fc with changes left out]

A450 (AU): 0.767 AU
B23: TNFα dAb Fc variant S76K (Fc fusion, name in Kabat numbering)
chain: DIQMTQSPSSLSASVGDRVTITCRASQAIDSYLHWYQQKPGKAPKLLIYSASNLETGVPSRFSGSGSGTDFTLTIKSLLPEDFATYYCQQVVWRPFTFGQGTKVEIKRV[human IgG1 Fc with changes left out]

A450 (AU): 0.783 AU
B24: TNFα dAb Fc variant R61Y (Fc fusion, name in Kabat numbering)
chain: DIQMTQSPSSLSASVGDRVTITCRASQAIDSYLHWYQQKPGKAPKLLIYSASNLETGVPSYFSGSGSGTDFTLTISSLLPEDFATYYCQQVVWRPFTFGQGTKVEIKRV[human IgG1 Fc with changes left out]

A450 (AU): 0.649 AU
B25: TNFα dAb Fc variant Q38L (Fc fusion, name in Kabat numbering)
chain: DIQMTQSPSSLSASVGDRVTITCRASQAIDSYLHWYQLKPGKAPKLLIYSASNLETGVPSRFSGSGSGTDFTLTISSLLPEDFATYYCQQVVWRPFTFGQGTKVEIKRV[human IgG1 Fc with changes left out]

A450 (AU): 0.593 AU
B26: TNFα dAb Fc variant S65D (Fc fusion, name in Kabat numbering)
chain: DIQMTQSPSSLSASVGDRVTITCRASQAIDSYLHWYQQKPGKAPKLLIYSASNLETGVPSRFSGDGSGTDFTLTISSLLPEDFATYYCQQVVWRPFTFGQGTKVEIKRV[human IgG1 Fc with changes left out]

A450 (AU): 0.904 AU
B27: TNFα dAb Fc variant T69H (Fc fusion, name in Kabat numbering)
chain: DIQMTQSPSSLSASVGDRVTITCRASQAIDSYLHWYQQKPGKAPKLLIYSASNLETGVPSRFSGSGSGHDFTLTISSLLPEDFATYYCQQVVWRPFTFGQGTKVEIKRV[human IgG1 Fc with changes left out]

A450 (AU): 0.211 AU
B28: TNFα dAb Fc variant R61L (Fc fusion, name in Kabat numbering)
chain: DIQMTQSPSSLSASVGDRVTITCRASQAIDSYLHWYQQKPGKAPKLLIYSASNLETGVPSLFSGSGSGTDFTLTISSLLPEDFATYYCQQVVWRPFTFGQGTKVEIKRV[human IgG1 Fc with changes left out]

A450 (AU): 0.77 AU
B29: TNFα dAb Fc variant P80H (Fc fusion, name in Kabat numbering)
chain: DIQMTQSPSSLSASVGDRVTITCRASQAIDSYLHWYQQKPGKAPKLLIYSASNLETGVPSRFSGSGSGTDFTLTISSLLHEDFATYYCQQVVWRPFTFGQGTKVEIKRV[human IgG1 Fc with changes left out]

A450 (AU): 0.877 AU
B30: TNFα dAb Fc variant Q37A (Fc fusion, name in Kabat numbering)
chain: DIQMTQSPSSLSASVGDRVTITCRASQAIDSYLHWYAQKPGKAPKLLIYSASNLETGVPSRFSGSGSGTDFTLTISSLLPEDFATYYCQQVVWRPFTFGQGTKVEIKRV[human IgG1 Fc with changes left out]

A450 (AU): 0.947 AU
B31: TNFα dAb Fc variant P80A (Fc fusion, name in Kabat numbering)
chain: DIQMTQSPSSLSASVGDRVTITCRASQAIDSYLHWYQQKPGKAPKLLIYSASNLETGVPSRFSGSGSGTDFTLTISSLLAEDFATYYCQQVVWRPFTFGQGTKVEIKRV[human IgG1 Fc with changes left out]
